In PubChem BioAssay AID624296 (National Center for Advancing Translational Sciences (NCATS), 2012):
Among all 350,000 compounds or so, about 9,900 (2.8%) were called active. Inconclusive means that the source gave no clear call. Such entries were picked first, then a sample of the others. The call rests on the fitted dose curve; in most records, active means well fitted activation curve with a large enough effect; inconclusive means small, poorly fitted or top-dose-only effect; inactive means no such curve, though single readings can be large or run the other way. No potency is given beside an inconclusive call; the fits are too rough.

Assay: A quantitative high throughput screen for small molecules that induce DNA re-replication in MCF 10a normal breast cells. Further: nearly all actives have a fitted effect of over 50% in size.
Details: MCF 10A DNA re-replication, Hoechst nuclear intensity, 48 h; series mostly up to 46.1 µM
Potency means the concentration at half of the fitted maximal effect; tags describe the fitted curve by direction and shape.

Row | Compound | Potency
1 | Cc1ccn2c(=O)nc(SCC(=O)Nc3ccc4c(c3)OCCO4)nc2c1 | inconclusive [activator, single point]
2 | COc1ccc(OC)c(NC(=O)c2csc(Cl)c2OC)c1 | inconclusive [activator, single point]
3 | CCOc1ccccc1N(CC(=O)NCc1ccco1)C(=O)CCC(=O)Nc1nccs1 | inconclusive [activator, partial curve, poor fit]
4 | Cc1nc(C(=O)Nc2ccc(Cl)cc2)sc1C1(C)CC(c2cccc([N+](=O)[O-])c2)=NO1 (configuration not stated) | inactive
5 | Cc1sc2nc(CN3CCCC3)nc(Cl)c2c1C | inconclusive [activator, single point]
6 | COc1cc(NC(=O)c2cccnc2)c(OC)cc1NC(=O)c1ccc(Br)cc1 | inactive
7 | COc1ccccc1-c1nnc(NC(=O)CSc2nncn2C)s1 | inactive
8 | CCSC1=N/C(=C\c2cccnc2)C(=O)N1c1ccccc1 | inconclusive [activator, single point]
9 | CN(C)CC(C)(C)CNCc1cc(=O)oc2ccc3ccccc3c12 | inconclusive [activator, single point]
10 | CCOc1ccc(C(=O)c2ccccc2C(=O)O)cc1OCC | inactive
11 | COc1ccc(CCN(C)C/C=C/c2ccccc2)cc1OC | inconclusive [activator, partial curve, poor fit]
12 | CC(=O)Nc1ccc(OCC(=O)NCc2ccc(C)cc2)cc1 | active: 1.16 µM
13 | Cc1ccc2nnnc(-c3ccccc3)c2c1 | inconclusive [activator, partial curve, poor fit]
14 | S=c1[nH]nc(-c2cccs2)n1/N=C/c1cn(-c2ccccc2)nc1-c1ccc(Cl)cc1 | inconclusive [activator, partial curve, poor fit]
15 | COc1ccccc1Nc1nc(N)nc(CN(C)C2CCCCC2)n1 | inconclusive [activator, partial curve, poor fit]
16 | O=S(=O)(c1ccc(Oc2ccc(S(=O)(=O)N3CCOCC3)cc2)cc1)N1CCOCC1 | inactive
17 | C=CCN(C(=O)c1csnn1)C(C(=O)NC1CCCCC1)c1ccc(Cl)cc1 (configuration not stated) | inconclusive [activator, single point]
18 | Cc1ccc(N2C(=O)C(Cl)=C(N3CCOCC3)C2=O)cc1Cl | inconclusive [activator, single point]
19 | CC(C)NC(=O)COc1ccc(Cl)cc1Cl | inconclusive [activator, full curve]
20 | COc1ccc(-c2c(C)nn3c(N4CCCCCC4)cc(C)nc23)cc1OC | inconclusive [activator, single point]
21 | COc1ccc(CCNC(=O)c2ccc3c(c2)N(Cc2ccccc2)CCS3)cc1OC | inconclusive [activator, partial curve, poor fit]
22 | NNC(=O)CP(=O)(c1ccccc1)c1ccccc1 | inactive
23 | CC(C)C1CC(O)(C2(O)CCCCC2)ON1 (configuration not stated) | inconclusive [activator, single point]
24 | Cc1ccc(C2C3CSCC=C3C(C#N)=C(N)C2(C#N)C#N)cc1 (configuration not stated) | inconclusive [activator, single point]

Row | Compound | Potency
25 | O=c1ccn([C@@H]2O[C@H](COS(=O)(=O)O)[C@@H](O)[C@H]2O)c(=O)[nH]1 | inconclusive [activator, partial curve, poor fit]
26 | O=C(OCc1ccccc1)/C(=C/c1cccc([N+](=O)[O-])c1)NC(=O)c1ccco1 | inactive
27 | COCCN(C(=O)COC(=O)C1(c2ccccc2)CC1)c1c(N)n(CC(C)C)c(=O)[nH]c1=O | inactive
28 | COc1ccc(Cn2ccnc2SCC(=O)Nc2nnc(C)s2)cc1 | inactive
29 | Nc1nn(-c2ccccc2)c(N)c1N=Nc1ccc2c(c1)OCO2 | inconclusive [activator, partial curve]
30 | Nc1nnc(-c2ccc([N+](=O)[O-])o2)s1 | inconclusive [activator, single point]
31 | COc1ccc(-c2cc(NC(=O)c3cncn3-c3ccccc3)ccc2OC)cc1 | inactive
32 | COc1ccccc1C(=O)Nc1ccc(S(=O)(=O)Nc2nccs2)cc1 | inconclusive [activator, single point]
33 | CC(C)C(=O)Nc1ncc(C(F)(F)F)cc1Cl | inactive
34 | CCOC(=O)c1[nH]c(Cc2[nH]c(C(=O)OCC)c(C)c2CCC(=O)OC)c(CCC(=O)OC)c1C | inactive
35 | Cc1ccc(Cl)cc1NC(=S)N(CCN(C)C)C(C)c1ccccn1 (configuration not stated) | inactive
36 | C[C@H](O)Cc1cc2ccccc2c(=O)o1 | active: 2.91 µM
37 | O=C(O)Cn1c(C(=O)Nc2nc(-c3ccccc3Cl)cs2)cc2ccccc21 | inconclusive [activator, partial curve, poor fit]
38 | Cc1c(F)cccc1NS(=O)(=O)c1ccc(OCCNS(C)(=O)=O)cc1 | inactive
39 | CCCNC(=O)COc1ccc(-c2nn(C)c(=O)c3ccccc23)cc1 | inactive
40 | O=C(NCC1COCCO1)C1CCN(S(=O)(=O)c2ccccc2)CC1 (configuration not stated) | inconclusive [activator, partial curve, poor fit]
41 | O=C(CSc1ncnc2scc(-c3ccccc3)c12)N1CCN(Cc2ccc3c(c2)OCO3)CC1 | inconclusive [activator, partial curve]
42 | O=C(NCc1ccco1)c1cnn2c(C(F)(F)F)cc(-c3cccs3)nc12 | inconclusive [activator, single point]
43 | CCC(CCC(=O)NNC(=O)Cc1ccc([N+](=O)[O-])cc1)C(=O)O (configuration not stated) | inconclusive [activator, partial curve, poor fit]
44 | CCOC(=O)C1=CN(Cc2ccc(OC)cc2)C=C(C(=O)OCC)C1c1cccs1 | active: 18.4 µM
45 | CCc1ccc(NC(=S)N2CCN(S(=O)(=O)c3ccccc3)CC2)cc1 | inactive
46 | CCOC(=O)c1sc(-c2ccc(Cl)cc2)nc1O | inconclusive [activator, single point]
47 | Cc1cc(C)c(NC(=O)CSc2nnc(Cc3cccn3C)n2-c2ccc(F)cc2)c(C)c1 | inactive
48 | Cc1ccc(OCC(=O)Nc2cccc3nsnc23)c(C)c1 | inconclusive [activator, single point]

Row | Compound | Potency
49 | COc1ccccc1N1CCN(C2CCCN(Cc3cc(F)cc(F)c3)C2)CC1 (configuration not stated) | inconclusive [activator, single point]
50 | COc1ccccc1CC(=O)OC(C)C(=O)Nc1ccc(S(=O)(=O)N2CCCCC2)cc1 (configuration not stated) | inactive
51 | CSc1ncccc1C(=O)Nc1nc2ccc(Oc3ccccc3)cc2s1 | inconclusive [activator, partial curve, poor fit]
52 | COC(=O)c1ccc(C(=O)N2CCCC(CNC(=O)c3ccccc3Cl)C2)cc1 (configuration not stated) | inactive
53 | Nc1c(S(=O)(=O)c2ccccc2)c2nc3ccccc3nc2n1/N=C/c1ccco1 | inconclusive [activator, full curve, poor fit]
54 | O=C(Nc1cccc(-c2nnc(-c3ccco3)o2)c1)c1ccccc1 | inconclusive [activator, partial curve, poor fit]
55 | CC1CCCN(c2nc3c(c(=O)n(C)c(=O)n3C)n2Cc2ccccc2)C1 (configuration not stated) | inconclusive [activator, partial curve, poor fit]
56 | COc1cccc(C(=O)Nc2nnc(S(=O)(=O)N(C)Cc3ccccc3)s2)c1 | inactive
57 | CCN(CC)c1ccc(/C=N/NC(=O)c2cccc(S(=O)(=O)N3CCOCC3)c2)c(O)c1 | active: 14.6 µM
58 | Cc1cc(OCCn2ccnc2)ccc1C(C)C | inconclusive [activator, single point]
59 | Cn1cc(C(=O)C(=O)N2CCCC2)c2ccccc21 | inactive
60 | Nc1nc(Nc2ccccc2)nc(NCc2ccco2)c1[N+](=O)[O-] | inconclusive [activator, partial curve, poor fit]
61 | O=C(CCl)N1CCN(S(=O)(=O)Cc2ccccc2)CC1 | inconclusive [activator, single point]
62 | N#C/C(=C\c1cccnc1)C(=O)Nc1ccccc1[N+](=O)[O-] | inactive
63 | Cc1cc(C)cc(CSc2ccc(S(=O)(=O)N3CCCC3)cn2)c1 | inactive
64 | NC(=O)c1ccc(Nc2nnc(-c3ccc(O)cc3)c3ccccc23)cc1 | inconclusive [activator, single point]
65 | COc1ccc(/C=N/NC(=O)c2ccccc2Cl)cc1CSc1nc2ccccc2s1 | active: 0.82 µM
66 | CC(=O)C1(O)C(C)CC2C3CCC4CC(O)CCC4(C)C3=CCC21C (configuration not stated) | active: 18.4 µM
67 | COc1ccc(CC(=O)Nc2cccc(S(=O)(=O)N3CCCCC3)c2)cc1 | inconclusive [activator, single point]
68 | C/C(=N\NC(=O)c1ccccc1)c1cc2cc([N+](=O)[O-])ccc2oc1=O | inactive
69 | COc1ccc(N(C)S(=O)(=O)c2cccc(C(=O)OCC(=O)N(C)c3ccccc3)c2)cc1 | inconclusive [activator, single point]
70 | O=C(OCC#CCSc1nnc(-c2cccc3ccccc23)o1)c1ccc(F)cc1 | inconclusive [activator, full curve, poor fit]
71 | CN(C)S(=O)(=O)NC(=O)C1=C(N2CCCC2)COC1=O | inactive
72 | CCN(CC(=O)Nc1ccc(NC(C)=O)cc1)C(=O)c1ccc(COc2ccc(C(C)(C)C)cc2)cc1 | inactive
